# Assay results from the supplement of paper PMC8728848.
# The other results are listed elsewhere or left out.
# B1: Epa7 (Candida glabrata), Q6DTM6_CANGB (protein)
# chain: MGSSHHHHHHSSGLVPRGSHMKDDYSSFLSNNNLGWTDPTEFPLGCSPNVTTPKNGLSMELYSYDLRKNGSYPCWDAAYLDPNYPRTGYKSHRLLAKVDGVTGNINFYYHATKGCTPEIDHLPASYNYPKPLTMTNFTMLLYGYFKPKVTGYHTFTISADDLLFVNFGAGNAFDCCKRESSADDFGNYQAYAVWGSQTAKDDLTVHLDAGLYYPIRIFFNNREYDAELSLTLKTESDSNPVIDFSDYFYSFDDTKDGCPGLVSYDTS
# Assays:
# Experiment in all cases: glycan array binding signal (z-score within array); higher = stronger binding
# Details in all cases: glycan notation: IUPAC condensed, linker removed
# [1] = molecular target: Fuc(b1-3)GlcNAc
# Summary of the method: (§1)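 Glycan array binding is given as a within-array Z-score, which can be read as non-binding when negative. The arrays, 3228 of them, came from the Consortium for Functional Glycomics database and were retained only where the protein sequence was available. Z-scores were averaged across arrays of the same protein sequence at different concentrations or buffers and across linkers.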
# [2] = molecular target: Gal(a1-2)Gal
# Summary of the method: as §1
# [3] = molecular target: Gal(a1-3)Gal
# Summary of the method: as §1
# [4] = molecular target: Gal(a1-3)Gal(b1-3)Glc
# Summary of the method: as §1
# [5] = molecular target: Gal(a1-3)Gal(b1-3)GlcNAc
# Summary of the method: as §1
# [6] = molecular target: Gal(a1-3)Gal(b1-3)GlcNAc(b1-2)Man
# Summary of the method: as §1
# [7] = molecular target: Gal(a1-3)Gal(b1-3)GlcNAc(b1-2)Man(a1-3)[Gal(a1-3)Gal(b1-3)GlcNAc(b1-2)Man(a1-6)]Man(b1-4)GlcNAc(b1-4)GlcNAc
# Summary of the method: as §1
# [8] = molecular target: Gal(a1-3)Gal(b1-3)GlcNAc(b1-3)GalNAc
# Summary of the method: as §1
# [9] = molecular target: Gal(a1-3)Gal(b1-3)GlcNAc(b1-6)GalNAc
# Summary of the method: as §1
# [10] = molecular target: Gal(a1-3)Gal(b1-3)[Fuc(a1-4)]GlcNAc(b1-2)Man(a1-3)[Gal(a1-3)Gal(b1-3)[Fuc(a1-4)]GlcNAc(b1-2)Man(a1-6)]Man(b1-4)GlcNAc(b1-4)GlcNAc
# Summary of the method: as §1
# [11] = molecular target: Gal(a1-3)Gal(b1-4)Glc
# Summary of the method: as §1
# [12] = molecular target: Gal(a1-3)Gal(b1-4)GlcNAc
# Summary of the method: as §1
# [13] = molecular target: Gal(a1-3)Gal(b1-4)GlcNAc(b1-2)Man
# Summary of the method: as §1
# [14] = molecular target: Gal(a1-3)Gal(b1-4)GlcNAc(b1-2)Man(a1-3)[Gal(a1-3)Gal(b1-4)GlcNAc(b1-2)Man(a1-6)]Man(b1-4)GlcNAc(b1-4)GlcNAc
# Summary of the method: as §1
# [15] = molecular target: Gal(a1-3)Gal(b1-4)GlcNAc(b1-3)GalNAc
# Summary of the method: as §1
# [16] = molecular target: Gal(a1-3)Gal(b1-4)GlcNAc(b1-6)GalNAc
# Summary of the method: as §1
# [17] = molecular target: Gal(a1-3)Gal(b1-4)[Fuc(a1-3)]GalNAc
# Summary of the method: as §1
# [18] = molecular target: Gal(a1-3)Gal(b1-4)[Fuc(a1-3)]GlcNAc
# Summary of the method: as §1
# [19] = molecular target: Gal(a1-3)Gal(b1-4)[Fuc(a1-3)]GlcNAc(b1-2)Man(a1-3)[Gal(a1-3)Gal(b1-4)[Fuc(a1-3)]GlcNAc(b1-2)Man(a1-6)]Man(b1-4)GlcNAc(b1-4)GlcNAc
# Summary of the method: as §1
# [20] = molecular target: Gal(a1-3)GalNAc
# Summary of the method: as §1
# [21] = molecular target: Gal(a1-3)GlcNAc
# Summary of the method: as §1
# [22] = molecular target: Gal(a1-3)[Gal(a1-4)]Gal(b1-4)GlcNAc
# Summary of the method: as §1
# [23] = molecular target: Gal(a1-4)Gal(b1-3)GlcNAc(b1-2)Man(a1-3)[Gal(a1-4)Gal(b1-3)GlcNAc(b1-2)Man(a1-6)]Man(b1-4)GlcNAc(b1-4)GlcNAc
# Summary of the method: as §1
# [24] = molecular target: Gal(a1-4)Gal(b1-4)Gal
# Summary of the method: as §1
# [25] = molecular target: Gal(a1-4)Gal(b1-4)GalNAc
# Summary of the method: as §1
# [26] = molecular target: Gal(a1-4)Gal(b1-4)Glc
# Summary of the method: as §1
# [27] = molecular target: Gal(a1-4)Gal(b1-4)GlcNAc
# Summary of the method: as §1
# [28] = molecular target: Gal(a1-4)Gal(b1-4)GlcNAc(b1-2)Man(a1-3)[Gal(a1-4)Gal(b1-4)GlcNAc(b1-2)Man(a1-6)]Man(b1-4)GlcNAc(b1-4)GlcNAc
# Summary of the method: as §1
# [29] = molecular target: Gal(a1-4)Gal(b1-4)GlcNAc(b1-3)Gal(b1-4)Glc
# Summary of the method: as §1
# [30] = molecular target: Gal(a1-4)GlcNAc
# Summary of the method: as §1
# [31] = molecular target: Gal(a1-6)Glc
# Summary of the method: as §1
# [32] = molecular target: Gal(b1-2)Gal
# Summary of the method: as §1
# [33] = molecular target: Gal(b1-3)Gal
# Summary of the method: as §1
# [34] = molecular target: Gal(b1-3)Gal(b1-4)GlcNAc
# Summary of the method: as §1
# [35] = molecular target: Gal(b1-3)GalNAc
# Summary of the method: as §1
# [36] = molecular target: Gal(b1-3)GalNAc(a1-3)[Fuc(a1-2)]Gal(b1-4)Glc
# Summary of the method: as §1
# [37] = molecular target: Gal(b1-3)GalNAc(a1-3)[Fuc(a1-2)]Gal(b1-4)GlcNAc
# Summary of the method: as §1
binder,measurement,setting,value
B1,glycan array binding signal (z-score),[1],-0.25
same,glycan array binding signal (z-score),[2],-0.251
same,glycan array binding signal (z-score),[3],-0.23
same,glycan array binding signal (z-score),[4],-0.283
same,glycan array binding signal (z-score),[5],-0.245
same,glycan array binding signal (z-score),[6],-0.198
same,glycan array binding signal (z-score),[7],-0.142
same,glycan array binding signal (z-score),[8],-0.216
same,glycan array binding signal (z-score),[9],-0.21
same,glycan array binding signal (z-score),[10],-0.215
same,glycan array binding signal (z-score),[11],-0.218
same,glycan array binding signal (z-score),[12],-0.169
same,glycan array binding signal (z-score),[13],-0.204
same,glycan array binding signal (z-score),[14],-0.185
same,glycan array binding signal (z-score),[15],-0.22
same,glycan array binding signal (z-score),[16],-0.215
same,glycan array binding signal (z-score),[17],-0.284
same,glycan array binding signal (z-score),[18],-0.201
same,glycan array binding signal (z-score),[19],-0.157
same,glycan array binding signal (z-score),[20],-0.077
same,glycan array binding signal (z-score),[21],-0.278
same,glycan array binding signal (z-score),[22],-0.238
same,glycan array binding signal (z-score),[23],-0.188
same,glycan array binding signal (z-score),[24],-0.273
same,glycan array binding signal (z-score),[25],-0.255
same,glycan array binding signal (z-score),[26],-0.168
same,glycan array binding signal (z-score),[27],-0.071
same,glycan array binding signal (z-score),[28],-0.176
same,glycan array binding signal (z-score),[29],-0.209
same,glycan array binding signal (z-score),[30],-0.165
same,glycan array binding signal (z-score),[31],-0.15
same,glycan array binding signal (z-score),[32],-0.206
same,glycan array binding signal (z-score),[33],2.85
same,glycan array binding signal (z-score),[34],5.79
same,glycan array binding signal (z-score),[35],2.11
same,glycan array binding signal (z-score),[36],5.79
same,glycan array binding signal (z-score),[37],5.59
